Read counts are not given, so values of variants with three or more changes are uncertain.
B1: LINE1-mini (parent)
chain: GGCAGAGCUCAACACAGCGUGGCAAAGUGGCUGUGGCUAGACUGCC

Variants of: B1
Experiment: self-cleavage, relative activity (ratio to wild type); higher = more cleavage; in vitro, sequencing; the parent is a self-cleaving ribozyme

Variant	self-cleavage
GGCAGAGCUAAACGCAGCGUGGCAAGGUGGCUGUGUCUAGACUGCC [C10A A14G A26G G36U]	0.01
GGCAGAGCUAAACGCAGUGUGGCAACUUGGCUGUGGCUAGACUGCC [C10A A14G C18U A26C G27U]	0.01
GGCAGAGCUAAACGCAGCGUGGCAAAGUGGUCGUGGCUAGACUGCC [C10A A14G C31U U32C]	0
GGCAGAGCUAAACGCAACGUGGCAAAGUGGCUGUGGCUCGACAGCC [C10A A14G G17A A39C U43A]	0.03
GGCAGAGCUAAACGCAGCGUUGCAAAGUGGCUGUGGCUAGACUGCC [C10A A14G G21U]	0.04
GGCAGAGCUAAACUCCGCGUGGCAAAGUGACUGUGCCUAGUCUGCC [C10A A14U A16C G30A G36C A41U]	0.01
GGCAGAGCUAAACUCGGCGUGCCAAAGUGUCUGUGGCUUAACUGCC [C10A A14U A16G G22C G30U A39U G40A]	0
GGCAGAGCUAAACUCAGCGUGGCAAAGUGGAUGUGGCUAGACUGCC [C10A A14U C31A]	0.01
GGCAGAGCUAAACUCAGCGUGGCAAAGUGGUUGUGGCUAGACUGCC [C10A A14U C31U]	0.02
GGCAGAGCUAAACUCAGCGUAGGAGAGUGCCUGUGGCUAGACUGCC [C10A A14U G21A C23G A25G G30C]	0.05
GGCAGAGCUAAACUCAGCGUGUCAAAGUGGCUGUCGCUAGACUGCC [C10A A14U G22U G35C]	0.01
GGCAGAGCUAAACUCAGCGCGGCAAAGUGGCUGUGGCUAGACUGCC [C10A A14U U20C]	0.01
GGCAGAGCUAAACACCGCGUGGCCAAGUGGCCGUGUCUAGACUGCC [C10A A16C A24C U32C G36U]	0
GGCAGAGCUAAACACCGCGUGGCAGAGUGGCUGUGGCUAGACUGCC [C10A A16C A25G]	0.01
GGCAGAGCUAAACACCGCGUUGCAAAGUGGCUGUGGAUAGACUGCC [C10A A16C G21U C37A]	0.01
GGCAGAGCUAAACACCGCGUGGCAAAGUGGCUGUGGCUAAACUGCC [C10A A16C G40A]	0
GGCAGAGCUAAACACGGCGUGGUAAUGAGGCUGUGGCUGGACUGCC [C10A A16G C23U A26U U28A A39G]	0.01
GGCAGAGCUAAACACGCCGUGGCAAAGUGGCUGUGGCUAGACUGCC [C10A A16G G17C]	0.06
GGCAGAGCUAAACACGGCGUCGCCAAUUGGCUGUGGCUAGACUGCC [C10A A16G G21C A24C G27U]	0.02

Variant	self-cleavage
GGCAGAGCUAAACACGGCGUCGCAAAGUGGCUGUGGAUCGACUGCC [C10A A16G G21C C37A A39C]	0.01
GGCAGAGCUAAACACGGCGUGGCAAAGUGGCUAUGGCUACACUGCC [C10A A16G G33A G40C]	0
GGCAGAGCUAAACACUGCGUGGCUAAGUGGCUGUGGCUAAACUGCC [C10A A16U A24U G40A]	0.02
GGCAGAGCUAAACACUGCGUGGCAACGUGGCUGUGGCUAGACUGCC [C10A A16U A26C]	0.03
GGCAGAGCUAAACACUGCGUGGCAAAGUGGCUAUGGCUUGACUGCC [C10A A16U G33A A39U]	0.01
GGCAGAGCUAAACACUGCGUGGCAAAGUGGCUGUGUUUAGACUGCU [C10A A16U G36U C37U C46U]	0.01
GGCAGAGCUAAACACAGCGUGGCCAAGUGGCUGUGGCUCGACUGCC [C10A A24C A39C]	0.05
GGCAGAGCUAAACACAGCGUGGCCAAGUGGUUGUGGCUAGACUGCC [C10A A24C C31U]	0.02
GGCAGAGCUAAACACAGCGUGGCCAAGUAGCUGUGGCUAGACUCCC [C10A A24C G29A G44C]	0.01
GGCAGAGCUAAACACAGCGUGGCCAAGUGGCUGUGGCUAGACUACG [C10A A24C G44A C46G]	0.02
GGCAGAGCUAAACACAGCGUGGCCAAGUGGCAGUGGCUAGACUGCA [C10A A24C U32A C46A]	0.01
GGCAGAGCUAAACACAGCGUGGCGAAGUGGCUAUGGCUAGACUGCC [C10A A24G G33A]	0.02
GGCAGAGCUAAACACAGCGUGGCUAAGUGGCUGUGGCUAGACUGCA [C10A A24U C46A]	0.04
GGCAGAGCUAAACACAGCGUGGCUAAGUGCCUGUGGCUAGACUGCC [C10A A24U G30C]	0.05
GGCAGAGCUAAACACAGCGUGGCUAAGUGUCUGUGGCUAGACUGCC [C10A A24U G30U]	0.08
GGCAGAGCUAAACACAGCGUGGCUAAGUGGCUGUGCCUAGACUGCC [C10A A24U G36C]	0.02
GGCAGAGCUAAACACAGCGUGGCACAGUUGCUGUGGCUAGACUGCC [C10A A25C G29U]	0.01
GGCAGAGCUAAACACAGCGUGGCACAGUGUCUGUGCCUAGACUGCC [C10A A25C G30U G36C]	0.02
GGCAGAGCUAAACACAGCGUGGCACAGUGGCGGUGGCUAGACUGCC [C10A A25C U32G]	0.02

Variant	self-cleavage
GGCAGAGCUAAACACAGCGUGGCAGAGUGGCUGUCGAUAGACUGCC [C10A A25G G35C C37A]	0.01
GGCAGAGCUAAACACAGCGUGGCAUCGUAUCUGUUGCUAGACCGCG [C10A A25U A26C G29A G30U G35U U43C C46G]	0.03
GGCAGAGCUAAACACAGCGUGGCAUAGUGGCUGUGUCUAGAAUGCC [C10A A25U G36U C42A]	0.01
GGCAGAGCUAAACACAGCGUGGCAACGUGGCUGUGGCUAGACUGCU [C10A A26C C46U]	0.03
GGCAGAGCUAAACACAGCGUGGCAACGUGGCUGUCACUAGAGUGCC [C10A A26C G35C G36A C42G]	0
GGCAGAGCUAAACACAGCGUGGCAACGUGGCUGUUGCUAGACUGCC [C10A A26C G35U]	0.01
GGCAGAGCUAAACACAGCGUGGCAAUGUGGCUGUGGCUUAACUGCC [C10A A26U A39U G40A]	0.07
GGCAGAGCUAAACACAGCGUGGCAAUGUGGCUGUGGUUAGACUGCC [C10A A26U C37U]	0.03
GGCAGAGCUAAACACAGCGUGGCAAUAUGGCUGUCGCAAGACUGCC [C10A A26U G27A G35C U38A]	0.01
GGCAGAGCUAAACACAGCGUGGCAAUGUUGCUGUGGCUAGACUGCC [C10A A26U G29U]	0.01
GGCAGAGCUAAACACAGCGUGGCAAUGUGGCCGUGGCUAGACUGCC [C10A A26U U32C]	0.03
GGCAGAGCUAAACACAGCGUGGCAAUGUGGCUGUGGCUAGACAGCC [C10A A26U U43A]	0.01
GGCAGAGCUAAACACAGCGUGGCAAAGUGGCUGUGGCUUGAAUGAC [C10A A39U C42A C45A]	0.02
GGCAGAGCUAAAAACAGCGUGGCAAAGUGGCUGUGGCUCGGCUGUU [C10A C13A A39C A41G C45U C46U]	0
GGCAGAGCUAAAAAAAGCGUGGCAAAGUGGCUGGGUCUAGACUGCC [C10A C13A C15A U34G G36U]	0.04
GGCAGAGCUAAAAACAGGGUGGCCAAGUGGCUGUGGCUAGACUGCC [C10A C13A C18G A24C]	0.05
GGCAGAGCUAAAAACAGGGUGGCAAAGUGGCUGUACCUAGACUGCC [C10A C13A C18G G35A G36C]	0.05
GGCAGAGCUAAAAACAUCGUGGCCAAGUGGCUGUGGCUAGACUGCC [C10A C13A G17U A24C]	0.01

— the RNAGym collection of RNA variant scans (doi:10.7554/elife.90254)
